# In the supplement of paper PMC8728848:
# The other results are listed elsewhere or left out.
# B1: Microvirin-2 (Microcystis aeruginosa) (protein)
# chain: MPNFSHTCSSINYDPDSTILSAECQARDGEWLPTELRLSDHIGNIDGELQFGDQNFQETCQDCHLEFGDGEQSVWLVCTCQTMDGEWKSTQILLDSQIDNNDSQLEIGGSMPNFSHTCSSINYDPDSTILSAECQARDGEWLPTELRLSDHIGNIDGELQFGDQNFQETCQDCHLEFGDGEQSVWLVCTCQTMDGEWKSTQILLDSQIDNNDSQLEIG
# Target: Neu5Gc(b2-6)Gal(b1-4)GlcNAc
# Assay: glycan array binding signal (z-score within array); higher = stronger binding
# Conditions: glycan notation: IUPAC condensed, linker removed
# In short: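 Arrays were curated from the Consortium for Functional Glycomics database, 3228 in total, and kept only where the protein sequence was available. Binding is expressed as a within-array Z-score. This score was averaged across arrays of the same protein sequence at different concentrations or buffers and across linkers, and negative values can be read as non-binding.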
binder,measurement,value
B1,glycan array binding signal (z-score),-0.119
